According to patent US6974820B2, “Methods for treating urinary incontinence and other disorders using trospium” (Bridge Pharma, Inc., priority 2002, dated 2005):

Biological target: T1, human recombinant muscarinic receptor M-2 (Homo sapiens, UniProt P08172)
T1 sequence (P08172 1-466): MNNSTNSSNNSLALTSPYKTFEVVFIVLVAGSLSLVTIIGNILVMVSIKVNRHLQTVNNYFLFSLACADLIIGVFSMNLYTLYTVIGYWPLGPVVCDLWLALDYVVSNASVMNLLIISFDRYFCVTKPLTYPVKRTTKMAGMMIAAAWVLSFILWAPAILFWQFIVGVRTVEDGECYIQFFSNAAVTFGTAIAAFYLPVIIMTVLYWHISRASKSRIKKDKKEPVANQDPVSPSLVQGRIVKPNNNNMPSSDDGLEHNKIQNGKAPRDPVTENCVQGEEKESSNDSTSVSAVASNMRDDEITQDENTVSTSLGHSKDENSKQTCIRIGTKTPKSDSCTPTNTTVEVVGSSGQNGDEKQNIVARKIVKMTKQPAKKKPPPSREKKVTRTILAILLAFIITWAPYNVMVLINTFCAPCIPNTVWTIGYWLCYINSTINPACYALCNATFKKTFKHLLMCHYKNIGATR
Experiment: biochemical

O=C(O[C@H]1C[C@H]2CC[C@@H](C1)[N+]21CCCC1)C(O)(c1ccccc1)c1ccccc1 [Trospium, 3α-hydroxy-spiro[1αH,5αH-nortropane-8,1′-pyrrolidinium] chloride benzilate]
Ki: 0.631 nM
